From PMC4336329 (PLoS ONE, 2015)
Screen size: about 310,000 compounds; about 14,000 (4.5%) showed an effect of 50% or more. The effect is printed as a negative number. The list shows a part of the results.

Target: human ether-à-go-go-related gene (hERG) potassium channel (human, UniProt Q12809)
Test: primary screen, population patch clamp on CHO cells stably expressing hERG
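Note: peak tail current of the secondary pulse compared with the same well before compound.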

human ether-à-go-go-related gene (hERG) potassium channel, sequence (Q12809 whole entry, looked up): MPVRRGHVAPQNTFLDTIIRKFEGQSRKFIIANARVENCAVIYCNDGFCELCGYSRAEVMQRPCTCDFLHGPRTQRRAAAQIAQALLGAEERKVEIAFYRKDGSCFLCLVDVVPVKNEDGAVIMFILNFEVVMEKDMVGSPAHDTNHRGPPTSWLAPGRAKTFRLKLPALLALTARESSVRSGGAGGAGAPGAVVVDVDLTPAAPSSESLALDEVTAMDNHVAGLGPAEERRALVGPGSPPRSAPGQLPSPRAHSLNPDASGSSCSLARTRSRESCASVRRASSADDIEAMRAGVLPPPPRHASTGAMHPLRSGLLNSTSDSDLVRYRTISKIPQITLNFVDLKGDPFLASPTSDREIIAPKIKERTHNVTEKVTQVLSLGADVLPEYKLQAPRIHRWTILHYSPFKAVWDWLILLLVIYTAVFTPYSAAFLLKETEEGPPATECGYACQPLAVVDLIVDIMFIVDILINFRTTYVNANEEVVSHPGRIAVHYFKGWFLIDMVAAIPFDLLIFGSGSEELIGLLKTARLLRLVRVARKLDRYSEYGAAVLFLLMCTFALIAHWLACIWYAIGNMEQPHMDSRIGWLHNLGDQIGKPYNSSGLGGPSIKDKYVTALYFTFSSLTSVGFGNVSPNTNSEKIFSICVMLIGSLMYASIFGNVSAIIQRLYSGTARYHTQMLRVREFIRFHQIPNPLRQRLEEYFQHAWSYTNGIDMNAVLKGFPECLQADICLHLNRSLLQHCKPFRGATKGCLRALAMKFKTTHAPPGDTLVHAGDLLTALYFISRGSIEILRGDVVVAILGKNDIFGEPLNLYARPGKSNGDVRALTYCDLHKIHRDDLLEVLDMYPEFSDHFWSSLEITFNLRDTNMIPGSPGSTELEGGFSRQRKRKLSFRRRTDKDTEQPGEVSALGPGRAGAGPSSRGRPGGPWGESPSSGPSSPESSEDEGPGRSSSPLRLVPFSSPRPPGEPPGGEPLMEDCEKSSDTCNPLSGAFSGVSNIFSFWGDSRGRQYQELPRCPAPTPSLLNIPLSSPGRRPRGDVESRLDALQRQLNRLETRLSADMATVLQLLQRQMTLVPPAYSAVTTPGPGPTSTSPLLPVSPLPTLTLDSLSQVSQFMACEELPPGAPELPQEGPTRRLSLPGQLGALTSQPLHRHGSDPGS

| SMILES | hERG current change (%, negative = inhibition) at 10uM [%] |
| --- | --- |
| O=S(=O)(c1ccc2c(c1)CCCN2)N1CCCC1 | -7.95 |
| Cc1ccc(C2(C)NC(=O)N(CC(=O)NC(C)c3ccccc3)C2=O)cc1 (stereo not drawn) | 11.7 |
| Cc1cc(=O)[nH]c(N/N=C/c2ccc3c(c2)OCCO3)n1 | 6.88 |
| CCCCOc1cccc(C2/C(=C(/O)c3ccc4c(c3)CC(C)O4)C(=O)C(=O)N2CCN2CCOCC2)c1 (stereo not drawn) | 8.57 |
| Cc1cc(-n2c(C)cc(C(=O)COC(=O)CN=C3NS(=O)(=O)c4ccccc43)c2C)no1 | 4.85 |
| O=S(=O)(c1ccc(NC(=S)Nc2ccccc2)cc1)N1CCOCC1 | -6.94 |
| O=C(O)COC(=O)Cc1ccccc1Nc1c(Cl)cccc1Cl | 19.2 |
| O=C(CCc1c[nH]c2ccccc12)OCC(=O)N1CCN(S(=O)(=O)c2ccccc2)CC1 | -24.2 |
| CN1CCN(c2ccc(-c3cccc(NC(=O)COc4ccccc4)c3)nn2)CC1 | -35.9 |
| Cc1cc(NS(=O)(=O)c2ccc(NC(=O)c3cnc4sccn4c3=O)cc2)nc(C)n1 | 13.4 |
| Cc1cccc(OCCCC(=O)Nc2ccc(Cl)c(S(=O)(=O)N3CCOCC3)c2)c1 | -18.2 |
| CC[C@H](C)C1NC(=O)[C@H](CC(=O)O)NC(=O)c2cc([N+](=O)[O-])cc(I)c2NCCC(C(N)=O)NC1=O (stereo partly drawn) | 18.2 |
| CCCCCc1nc2ccccc2c(=O)n1-c1ccccc1[N+](=O)[O-] | -24.5 |
| N#C/C(=C\c1c(N2CCC(C(N)=O)CC2)nc2ccccn2c1=O)S(=O)(=O)c1ccc(Cl)cc1 | -70.9 |
| O=C(Cc1ccccn1)c1ccc(Cl)cc1 | 17 |
| C=CCC(CC=C)(C(=O)O)c1ccccc1 | -8.46 |
| CN(C)CCCN1C(=O)C(=O)/C(=C(/O)c2ccncc2)C1c1cccc(Br)c1 (stereo not drawn) | 11.3 |
| N#CC1=C2N=C(N)c3ccccc3N2C2=C(C(=O)CCC2)C1c1cccc(Cl)c1 (stereo not drawn) | -6.16 |
| COc1cc2c(cc1OC)CN(c1ccc([N+](=O)[O-])c(C(F)(F)F)c1)CC2 | -8.39 |

| SMILES | hERG current change (%, negative = inhibition) at 10uM [%] |
| --- | --- |
| N#CCSc1nccc(/C=C/c2ccccc2)n1 | 4.5 |
| OC(CN1CCOCC1)(c1ccccc1)c1ccccn1 (stereo not drawn) | 9.52 |
| CN1CCCC(OC(=O)COc2ccccc2)C1.Cl (stereo not drawn) | 10.4 |
| O=C(NCC(=O)N1CCCCCCC1)c1ccco1 | 2.46 |
| CCC1CCCCN1CC(=O)Nc1ccc2c(c1)OCCO2 (stereo not drawn) | 10.6 |
| COc1ccc(C(=O)COC(=O)c2cc3ccccc3oc2=O)c(OC)c1 | -3.73 |
| Cc1ccc(NC(=O)CSc2nnc(Cc3cccn3C)n2-c2ccc(F)cc2)c(C)c1 | -1.67 |
| CCOc1ccc(NC(=O)C2CCCN(c3c(CC)c(C)nc4ncnn34)C2)cc1 (stereo not drawn) | -65.8 |
| O=C(Cc1nc2ccccc2[nH]1)NCc1ccco1 | 10.4 |
| O=C(O)/C=C/c1coc2ccc(F)cc2c1=O | 9.13 |
| Cc1cccc2c1nc(-c1ccccc1)n1cnnc21 | -11.6 |
| Cc1cccc2[nH]c(SCC(=O)O)nc12 | 12.7 |
| COCCOC(=O)/C(=C/c1ccc(OC(=O)c2ccccc2)cc1)C(C)=O | -18 |
| COc1cc(-c2nc3ccccn3c2N)ccc1O | -9.44 |
| C/C(Cn1nnc([N+](=O)[O-])n1)=N\NC(=O)c1ccc(C)cc1 | -11.6 |
| COC(=O)CC1=C(C(=O)OC)C(c2ccc3c(c2)OCO3)C(C#N)=C(N)O1 (stereo not drawn) | 1.59 |
| Cc1nnc(C)n1/N=C/c1cc2ccccc2nc1Cl | -14.3 |
| CC(=O)c1c(C)[nH]c(C(=O)OC2CCOC2=O)c1C (stereo not drawn) | 5.1 |
| O=C(Cn1ccccc1=O)Nc1ccc(Cl)c(S(=O)(=O)N2CCCCC2)c1 | -79.4 |

| SMILES | hERG current change (%, negative = inhibition) at 10uM [%] |
| --- | --- |
| COC(=O)c1ccccc1NC(=O)CC(NCc1ccccc1)C(=O)O (stereo not drawn) | -20.7 |
| OC1CC(c2ccco2)NC2(CCCCC2)C1 (stereo not drawn) | -3.62 |
| Clc1ccccc1C1NCc2ccccc2-n2cccc21 (stereo not drawn) | 7.79 |
| COC(=O)CCCC(=O)N1CCC(n2nccc2NC(=O)CCOc2ccccc2)CC1 | 8.96 |
| CN(Cc1ccccc1)C(=O)CSc1cc(=O)n(C)c2ccccc12 | -14.6 |
| O=C(Nc1nccs1)C1CCN(S(=O)(=O)c2ccc(Cl)c(C(F)(F)F)c2)CC1 | -0.668 |
| CCC(C)C(NC(=O)c1ccccc1NC(=O)c1ccco1)C(=O)NC1CCCCC1 (stereo not drawn) | -0.295 |
| c1ccc(CN2CCN(c3nc(-c4ccccc4)nc4ccccc34)CC2)cc1 | 8.72 |
| COc1cc(CCC(=O)OCC(=O)Nc2ncc(Cl)cc2Cl)cc(OC)c1OC | -16.2 |
| CCNCC(O)COCC(O)CNCC (stereo not drawn) | 19.2 |
| CN(C(=O)COC(=O)c1cc(-c2ccc(Cl)s2)nc2ccccc12)C1CCS(=O)(=O)C1 (stereo not drawn) | 6.06 |
| O=C(CCNc1ccc(Cl)cc1)c1cccs1 | 11.1 |
| O=C(/C=C/c1cccc(Cl)c1)NCc1ccccc1 | -6.39 |
| Cc1cc(C)cc(N(CC(=O)Nc2cc(C)ccc2C)S(=O)(=O)c2c(C)[nH]c(=O)[nH]c2=O)c1 | 5.03 |
| O=C(NCc1cccs1)C(=O)c1c[nH]c2ccccc12 | -0.144 |
| O=C(Cc1ccc(Br)cc1)NCc1ccccc1 | 15.9 |
| Cc1cc2[nH]c(=O)c(=O)[nH]c2cc1S(=O)(=O)Nc1cccc(Cl)c1C | -0.165 |
| O=C(Nc1nnc(Cc2ccccc2)s1)c1cccnc1 | 11.7 |
| CC1CSc2ccccc2NC1=S (stereo not drawn) | 7.67 |
